Hit rate of the full screen: of about 110,000 compounds, about 230 (0.21%) showed an effect of 50% or more. This is one part of the list.
Target: DPAP1 (Plasmodium falciparum, UniProt Q8IIJ9)
Test: primary screen, percent inhibition; read by cleavage of a fluorogenic dipeptide substrate; higher = more effect of the substance
Set-up: species or system P. falciparum D10 trophozoite lysates; single well
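Note: 30 min substrate incubation versus DMSO and 10 µM JCP410 controls.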

Chain of DPAP1 (Q8IIJ9 whole entry, looked up): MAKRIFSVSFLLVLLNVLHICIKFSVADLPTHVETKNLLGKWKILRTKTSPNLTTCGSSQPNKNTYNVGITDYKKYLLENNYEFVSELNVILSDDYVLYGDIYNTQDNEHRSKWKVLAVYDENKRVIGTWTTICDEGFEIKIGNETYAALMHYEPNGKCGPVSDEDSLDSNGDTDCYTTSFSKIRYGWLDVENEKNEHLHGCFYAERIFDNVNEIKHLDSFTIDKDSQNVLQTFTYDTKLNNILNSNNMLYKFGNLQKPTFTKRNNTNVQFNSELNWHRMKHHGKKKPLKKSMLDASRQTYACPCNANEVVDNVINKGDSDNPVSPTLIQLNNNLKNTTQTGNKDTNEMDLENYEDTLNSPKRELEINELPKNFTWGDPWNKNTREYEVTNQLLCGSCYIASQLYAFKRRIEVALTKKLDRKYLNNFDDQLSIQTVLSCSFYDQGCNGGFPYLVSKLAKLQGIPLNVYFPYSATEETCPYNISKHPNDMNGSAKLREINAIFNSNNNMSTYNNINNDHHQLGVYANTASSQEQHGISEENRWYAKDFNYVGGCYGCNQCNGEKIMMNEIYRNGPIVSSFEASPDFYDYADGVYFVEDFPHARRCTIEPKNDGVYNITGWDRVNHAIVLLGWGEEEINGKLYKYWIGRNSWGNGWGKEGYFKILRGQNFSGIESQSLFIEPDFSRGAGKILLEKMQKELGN

| Compound | % Inhibition @ 10 uM [%] |
| --- | --- |
| COc1ccccc1NC(=O)c1ccc(NS(=O)(=O)c2cccc(C(F)(F)F)c2)cc1 | -2.76 |
| CCCN1CCN(C(=O)C2CCN(c3nc4cc(Br)c(OCC)cc4s3)CC2)CC1 | 3.3 |
| COc1ccc(C2(N3CCOCC3)Oc3ccccc3C(C#Cc3ccccc3)=C2C)cc1 (stereo not shown) | -1.15 |
| CN1CCN(c2ccc([N+](=O)[O-])c(N)c2)CC1 | -6.99 |
| Cc1ccc(-c2nc(C(=O)N(C)CCC#N)c3n2CCCCC3)cc1 | -3.47 |
| CCOC(=O)c1c(C)nc2cc(C(=O)O)nn2c1C | -1.66 |
| Clc1ccc(N2CCN(C3CCCCCC3)CC2)cc1 | -3.6 |
| O=C(NCc1ccco1)c1ccc(Br)cc1 | -0.833 |
| CCOC(=O)N1CCN(c2c(NCc3ccccn3)c(=O)c2=O)CC1 | 5.09 |
| CCn1ncc(Cl)c1C(=O)Nc1cccc(C)c1C | 0.746 |
| COc1ccc(C2SC(C)C(=O)N2c2ccc(Cl)cc2)cc1 (stereo not shown) | 13.3 |
| CCCCOc1cccc(C2(C(=O)O)CCCC2)c1 | -1.97 |
| CCN1CN=C(Nc2nc(C)c3cc(C)ccc3n2)NC1 | -1.33 |
| N#CC1=C(N)Oc2[nH]nc(-c3ccccc3)c2C1c1ccc(Cl)cc1Cl (stereo not shown) | 6.42 |
| Cc1ccc(N2C(=O)CC(N3CCN(c4ccccc4F)CC3)C2=O)cc1 (stereo not shown) | 13.7 |
| COc1ccc(C2OC(=O)c3ccccc3S2)cc1 (stereo not shown) | 2.8 |
| Cc1ccc(-n2nnc(C(N)=O)c2C)cc1 | -13.4 |
| CCN1CCN(Cc2ccccc2[N+](=O)[O-])CC1 | -1.29 |
| Cc1cccc(CCNc2ncnc3onc(C)c23)c1 | -2.71 |
| Cc1ccc(CSCC(=O)NCc2cccs2)cc1 | 2.18 |
| O=C(O)c1cc(Br)cc2c3c([nH]c12)CCCC3 | 4.83 |
| Cc1cccc2c1-c1sc(C(=O)NCCc3ccsc3)cc1CO2 | -3.08 |
| CCN1CCC(Nc2ccccc2SC)CC1 | -1.82 |
| Cc1cc(NC(=O)CSc2ccccn2)no1 | 7.1 |
| COc1cccc(C(=O)Nc2cccc(C(C)=O)c2)c1 | 2.22 |
| C[C@]12Cc3nc4ccccc4c(N)c3[C@@]1(C)c1c(nc3ccccc3c1N)C2 | -0.185 |

| Compound | % Inhibition @ 10 uM [%] |
| --- | --- |
| COc1cc(C(=O)Nc2cccc3cccnc23)cc(OC)c1OC | -2.46 |
| CCC1CCCCN1C(=O)c1cnn2c(C(F)F)cc(-c3ccccc3)nc12 (stereo not shown) | 5.65 |
| CNC(=O)c1c(NC(=O)c2cccs2)sc2c1CCC(C(C)(C)C)C2 (stereo not shown) | -2.8 |
| CC/N=c1\c(NS(=O)(=O)c2c(C)nc3sccn3c2=O)c(O)oc2ccccc12 | 10.8 |
| COc1ccc(CC2(NC(=O)c3ccc(Cl)cc3)N=C3C(C)=CC=CN3C2=O)cc1 (stereo not shown) | -6.85 |
| Cc1ccc(C)c(OCC(=O)Nc2ccc(S(=O)(=O)N3CCCC3)cc2)c1 | -0.891 |
| O=S(=O)(c1cccc2nsnc12)N(CCOc1ccccc1)C1CCCCC1 | -1.42 |
| CCOc1cccc(NC(=O)c2ccc(Cl)cc2)c1 | 3.49 |
| COc1cc(C2C(C(=O)c3ccccc3)=C(O)C(=O)N2CCN)ccc1O (stereo not shown) | 8.01 |
| O=C(CCc1nc2cccnc2n1-c1ccccc1)N1CC=C(c2ccccc2)CC1 | 3.2 |
| O=C(NCc1ccc(F)cc1)[C@H](Cc1ccccc1)N1Cc2ccccc2C1=O | -4.1 |
| CO/C(O)=C1\C(C)=NC2=C(C(=O)CCC2)C1c1cccc(Cl)c1Cl (stereo not shown) | 11.6 |
| Cc1ccc2nc(NS(=O)(=O)c3ccc(Cl)cc3)c(Nc3c(C)n[nH]c3C)nc2c1 | -5.67 |
| CN(c1ccccc1C(N)=O)S(=O)(=O)c1ccccc1 | 1.86 |
| CC(NC(=O)C(O)(c1ccccc1)c1ccccc1)C(=O)O (stereo not shown) | 0.248 |
| COc1ccccc1CNC1CCCCCC1 | -1.21 |
| Cc1cc(C)c(S(=O)(=O)N2CCN(C/C=C/c3ccccc3)CC2)c(C)c1 | -5.32 |
| Cc1ccc2oc(-c3cccc(NC(=O)c4ccccc4)c3)nc2c1 | -2.03 |
| COc1cccc(C2Oc3ccc(Cl)cc3C3CC(c4ccco4)=NN32)c1 (stereo not shown) | 19.2 |
| COC(=O)c1ccc(-c2ccc(/C=C3/C(=N)N4N=C(C(C)C)SC4=NC3=O)o2)cc1 | -8.7 |
| Cc1cccc2c1cnn2C(=O)CCC(=O)N1CCN(C2CCCCC2)CC1 | -1.92 |
| CC(NC(=O)CCNS(=O)(=O)c1ccc(Br)cc1)c1ccccc1 (stereo not shown) | -2.14 |
| O=C1CCCN1CCC12CC3CC(CC(C3)C1)C2 | 2.12 |
| O=C(c1cc(C2CC2)[nH]n1)n1ccnc1 | -4.66 |
| Cc1cc(C(=O)O)c2c(C)nn(-c3ccccc3Cl)c2n1 | -3.06 |
| Cc1cc(C)c2c(CC(=O)Nc3sc4c(c3C(=O)NCc3cccnc3)CCCC4)coc2c1 | 1 |

| Compound | % Inhibition @ 10 uM [%] |
| --- | --- |
| CCOc1cccc(OCC)c2c(C)[n+](Cc3ccccc3)c(C)c1-2 | -2.65 |
| CC(C)CCOc1ccc(C(=O)C(CN2CCOCC2)c2ccccc2)cc1 (stereo not shown) | -2.37 |
| CC1=NN(C(=O)c2cccc(Cl)c2)C(O)(c2cccnc2)C1 (stereo not shown) | -1.28 |
| COc1cccc(N2C(=O)CC(N3CCN(C/C=C/c4ccccc4)CC3)C2=O)c1 (stereo not shown) | -3.84 |
| CCN(CC)c1ccc(NC(=O)c2ccccc2OCC(=O)N2CCc3ccccc32)cc1 | 0.145 |
| Cc1ccc2ncc(S(=O)(=O)c3ccccc3)c(N3CCOCC3)c2c1 | -6.09 |
| Cc1ccc(CS(=O)Cc2ccc(C(=O)NCCCN3CCCC3)o2)cc1 (stereo not shown) | -0.47 |
| Cc1nc2cc(CC(=O)O)ccc2s1 | 0.0345 |
| COc1ccc(C2N(C)c3ccccc3N2C)cc1OC | 1.96 |
| COc1cc(CN2CCN(c3ccc(F)cc3)CC2)cc(OC)c1O | 0.708 |
| O=C(NC(C(=O)c1ccccc1)N1CCOCC1)c1ccccc1 (stereo not shown) | -2.62 |
| CC(C)CC(C(=O)NCC#N)c1cccc(-c2ccc3[nH]ccc3c2)c1 (stereo not shown) | 8.71 |
| CSc1ncc(Cl)c(C(=O)N(Cc2cccs2)C2CCS(=O)(=O)C2)n1 (stereo not shown) | 6.76 |
| Cc1ccc(OC(C)C(=O)Nc2ccccc2C)cc1 (stereo not shown) | 2.03 |
| O=C1OC(c2ccccc2)=N/C1=C\c1cccc(Cl)c1Cl | 4.35 |
| COC(=O)c1ccc(O)c(N2C(=O)c3ccc(C(=O)O)cc3C2=O)c1 | 12 |
| CCNC(=O)N1c2ccc(CC)cc2C(C)=CC1(C)C | -2.94 |
| Cc1ccc2nc(NC3=NCN(Cc4ccccc4)CN3)nc(C)c2c1 | -4.62 |
| COc1ccc(OCCN2CCCC2)cc1 | 3.82 |
| CC1CCCC(N2CCN(c3ccccc3F)CC2)C1 (stereo not shown) | 0.472 |
| C=CCOc1ccc(C2C3=C(CCCC3=O)N(CC(=O)O)C3=C2C(=O)CCC3)cc1OCC | -1.36 |
| CCOc1ccc(Br)cc1/C=C(\C#N)c1nc2cc(C)ccc2[nH]1 | -0.693 |
| CC1CC2c3cccc(C(=O)O)c3C(=O)N2c2ccccc21 (stereo not shown) | -0.519 |
| COc1ccc(OC)c(CN2CCC3(C=Cc4ccccc43)CC2)c1 | -1.64 |
| CC1=CC2=NC(=O)/C(=C\c3ccc(O)cc3)C(=N)N2O1 | -1.43 |
| CCn1cc(CNC(=O)COc2ccc(Cl)cc2Cl)cn1 | -1.96 |

| Compound | % Inhibition @ 10 uM [%] |
| --- | --- |
| Cc1cccc(OC(C)C(=O)N2CCCc3ccccc32)c1 (stereo not shown) | -0.598 |
| Cc1ccc(Cn2ncc3c(N4CCOCC4)ncnc32)cc1 | 3.21 |
| CN1CCC(N(C)Cc2ccc(Br)o2)CC1 | -4.5 |
| CCN(CC)C(=O)Nc1cccc(Cl)c1 | -0.192 |
| c1ccc(CN2CCC(NCC(c3ccccc3)c3ccccc3)CC2)cc1 | -0.0953 |
| COc1ccc(C(=O)C2=C(O)C(=O)N(CCCN(C)C)C2c2ccc(C(C)C)cc2)cc1 (stereo not shown) | 5.37 |
| COC(=O)N1CCN(c2ccccc2OC)CC1 | -6.36 |
| CCCN(CCC)C(=O)c1ccc2c(c1)OCO2 | 0.52 |
| O=C(COc1ccc(Cl)cc1Cl)N1CCC(CN2C(=O)c3cccc4cccc(c34)C2=O)CC1 | 7.75 |
| CCN(Cc1ccccc1)c1sc(S(C)(=O)=O)nc1S(=O)(=O)c1ccc(C)cc1 | -0.735 |
| Cc1nnc(NC(=O)CSc2nc3c(c(=O)n2C)SCC3)s1 | 1.39 |
| Cc1c(CN2CCN(c3ccccc3)CC2)c(=O)n(-c2ccccc2)n1C | 0.217 |
| CCOC(=O)c1c[nH]nc1/N=C(\C)c1c(C)nn(-c2nc3ccccc3s2)c1O | -3.04 |
| COc1ccc(S(=O)(=O)Nc2ccc(OC)c(OC)c2)cc1 | -10.6 |
| COc1cc2nn3c(C)cc(O)nc3c2cc1OC | -3.53 |
| CNC(=O)C1=C(C)N=C(S)NC1c1ccc(OC)c(OC)c1 (stereo not shown) | 3.72 |
| Cc1ccc2cc3cc(C(=O)NC4CCN(Cc5ccccc5)CC4)oc3nc2c1 | -5.22 |
| COc1ccc(OCC(O)Cn2c(S)nc3c2c(=O)[nH]c(=O)n3C)cc1 (stereo not shown) | 6.78 |
| COc1ccc(OC)c(C2=NOC(C(=O)Nc3cccnc3)C2)c1 (stereo not shown) | 1.24 |
| CCOc1ccccc1N1CCN(C(=O)c2ccccc2C)CC1 | 1.4 |
| O=c1cc2nc(-c3ccco3)nc(SCc3ccc(Br)cc3)n2[nH]1 | -2.48 |
| CC1CN(C(C)Cc2ccccc2F)CC(C)O1 (stereo not shown) | -1.75 |
| O=C(O)CSc1nc2ccccc2n1Cc1ccccc1 | 0.35 |
| COC(=O)c1ccccc1-n1cc2c(c1-c1ccccc1)c(=O)n(C)c(=O)n2C | 3.62 |
| COCc1cc(C)nc2sc(C(=O)Nc3cccc(C)c3)c(N)c12 | 3.21 |

From article PMC6919601, “Identification of Plasmodium dipeptidyl aminopeptidase allosteric inhibitors by high throughput screening” (PLoS ONE, 2019)
